Where two headings read alike, the source gives them in different places.

The subject of the assay is normal astrocytic GFAP expressing cell line C8-D1A. The experiment in a line: Astrocyte screen and neurosphere selectivity assessment (MTT dose-response). The assay is classed as cell-based, mouse. On the procedure: Astrocyte Screen and Neurosphere Selectivity Assessment. […] Murine Medulloblastoma Generation and Culture. […] Flow Cytometry. […] Results
To verify hits from the primary screen, a representative sample of candidate agents from each pharmacological class were retested at the original screen concentration of 3 μM. […] Because other neural cell types such as astrocytes are known to express and signal through neurotransmitter receptors (17), a counter-screen was performed in a proliferating normal mouse astrocyte cell line to assess the selectivity and potency of each agent for neurosphere cultures. It was reasoned that this counter-screen would allow not only the identification of small molecules that were specific for signaling pathways present in neural precursors, but it would also help rule out non-specific cytotoxic agents.

The mark [1] stands for this setting: EC50 (astrocytes)/EC50 (neurospheres), Table 8.
The mark [2] stands for this setting: EC50 astrocytes/EC50 precursor cells, Table 5.
The mark [3] stands for this setting: C8-D1A astrocytes, MTT, read-out: Astrocyte EC50.
The mark [4] stands for this setting: EC50 astrocytes/EC50 neurospheres.
Setting [5] is: Mus musculus, C8-D1A, read-out: EC 50% Astrocyte, Table 5.

With `CC(C)COCC(CN(Cc1ccccc1)c1ccccc1)N1CCCC1` (centres unmarked) [Bepridil (28), Bepridil], the “Neurosphere Selectivity” value under setting [1] was determined as 1.75. Also, the “Neurosphere Specificity” value under setting [2] was 1.75.

Regarding `CN1CCN(c2nc3cc(C(F)(F)F)ccc3n3cccc23)CC1.O=C(O)/C=C\C(=O)O` [CGS-12066A (40)], the “Neurosphere Selectivity” value under setting [1] was found to be 7.17. Further, the “Neurosphere Specificity” value under setting [2] came out at 7.17.

For `CCN(CC)CCOCCOC(=O)C1(c2ccccc2)CCCC1` [Carbetapentane (10), Carbetapentane], the “Neurosphere Specificity” value under setting [2] turned out to be 37.3.

`N.N.O=C([O-])C1(C(=O)[O-])CCC1.[Pt+2]` [Carboplatin (3), Carboplatin]: the EC50 was 2.45 µM under setting [3]; 2.45 µM (Table 8, read-out: Astrocyte EC50); 2.45 µM (read-out: EC 50% Astrocyte, Table 5). Besides, the “Neurosphere Selectivity” value was 5.08 under setting [1] and 5.08 under setting [4]. Further, the “Neurosphere Specificity” value under setting [2] amounted to 5.08.

For `C[C@@H]1C[C@@H]([C@H](O)CC2CC(=O)NC(=O)C2)C(=O)[C@@H](C)C1` [Cycloheximide (1), Cycloheximide], the EC50 by setting is: (Mus musculus, C8-D1A, read-out: Astrocyte EC50) 0.071 µM; (Mus musculus, C8-D1A, read-out: EC 50% Astrocyte) 0.0711 µM.

For the molecule `Cc1cc(N)c2ccccc2[n+]1CCCCCCCCCC[n+]1c(C)cc(N)c2ccccc21` [Dequalinium (29), Dequalinium], the “Neurosphere Specificity” value under setting [2] is listed as 0.962.

As to `COc1cc(CNC(=O)CCCCCCC(C)C)ccc1O` [Dihydrocapsaicin (15), Dihydrocapsaicin], under setting [2], the “Neurosphere Specificity” value turned out to be 192.

As to `COc1cc([C@@H]2c3cc4c(cc3[C@@H](O[C@@H]3O[C@@H]5CO[C@@H](C)O[C@H]5[C@H](O)[C@H]3O)[C@H]3COC(=O)[C@H]23)OCO4)cc(OC)c1O` [Etoposide (2), Etoposide], the “Neurosphere Selectivity” value is 1.28 under setting [1] and 1.28 under setting [4]. Further, under setting [2], the “Neurosphere Specificity” value came to 1.28.

Regarding `CC1=C(/C=C/C(C)=C/C=C/C(C)=C/C(=O)Nc2ccc(O)cc2)C(C)(C)CCC1` [Fenretinide (11), Retinoic acid p-hydroxyanilide], the “Neurosphere Selectivity” value reads like this: under setting [1], 7.18; under setting [4], 7.18. Also, the “Neurosphere Specificity” value under setting [2] came out at 7.18.

Regarding `CC(C(O)c1ccc(O)cc1)N1CCC(Cc2ccccc2)CC1` (centres unmarked) [Ifenprodil (9), Ifenprodil], the “Neurosphere Selectivity” value under setting [1] turned out to be 17.9 and the Neurosphere Selectivity under setting [4] is 17.9. Also, the “Neurosphere Specificity” value under setting [2] worked out at 17.9. For the same molecule, the EC50 by setting is: under setting [5], 11.1 µM; (Mus musculus, C8-D1A astrocytes, MTT, read-out: Astrocyte EC50) 11.1 µM.

In the case of `S=C=Nc1cccc(C2(N3CCCCC3)CCCCC2)c1` [Metaphit (35), Metaphit], the “Neurosphere Selectivity” value under setting [1] stood at 0.361. Moreover, under setting [2], the “Neurosphere Specificity” value is 0.361. Also, the EC50 is, setting by setting: under setting [5], 3.62 µM; (Mus musculus, C8-D1A, Table 8, read-out: Astrocyte EC50) 3.62 µM.

On to `COc1ccccc1CNCCCCCCNCCCCCCCCNCCCCCCNCc1ccccc1OC` [Methoctramine (31), Methoctramine], for which the “Neurosphere Specificity” value under setting [2] worked out at 0.802.

Turning to `OCCN1CCN(CCCN2c3ccccc3Sc3ccc(Cl)cc32)CC1` [Perphenazine (26), Perphenazine], the “Neurosphere Specificity” value under setting [2] is reported as above 4.

Consider `Oc1ccc(-c2nc(-c3ccc(F)cc3)c(-c3ccncc3)[nH]2)cc1` [SB 202190 (13)], for which the “Neurosphere Selectivity” value stood at 8.04 under setting [1] and 8.04 under setting [4]. Further, under setting [2], the “Neurosphere Specificity” value was 8.04.

With `COc1cc2ncnc(Nc3ccc(O)cc3)c2cc1OC` [WHI-P131 (12), 4-(4′-hydroxylphenyl)-amino-6,7-dimethoxyquinazoline], the “Neurosphere Selectivity” value under setting [1] is recorded as above 10 and the Neurosphere Selectivity under setting [4] is listed as above 10. Moreover, the “Neurosphere Specificity” value under setting [2] is above 10.

For `Cl.Cl.OCCN1CCN(CC/C=C2/c3ccccc3Sc3ccc(C(F)(F)F)cc32)CC1` [cis-(Z)-Flupenthixol (7), cis-(Z)-Flupenthixol], the “Neurosphere Selectivity” value by setting is: under setting [1], 5.93; under setting [4], 5.93. In addition, under setting [2], the “Neurosphere Specificity” value is recorded as 5.93.

Turning to `O[Si](CCCN1CCCCC1)(c1ccc(F)cc1)C1CCCCC1` (centres unmarked) [p-F-HHSiD (8), p-fluoro-hexahydrosila-difenidol], the “Neurosphere Selectivity” value under setting [1] was determined as 13.2 and the Neurosphere Selectivity under setting [4] amounted to 13.2. For the same molecule, the “Neurosphere Specificity” value under setting [2] is on record as 13.2.

For “(R)-(−)-Propylnorapomorphine [(R)-(−)-Propylnorapomorphine (5)]”, the “Neurosphere Selectivity” value is 23.4 and the “Neurosphere Specificity” value amounted to 23.4. For the same molecule, under setting [3], the EC50 was determined as 8.23 µM. The Neurosphere Selectivity under setting [4] came out at 23.4. Besides, the EC50 (read-out: Astrocyte EC50) came out at 8.23 µM. Also, where the note is “read-out: EC 50% Astrocyte”, the EC50 was found to be 8.23 µM.

Values taken from US8058243B2, “Method for treating a brain cancer with ifenprodil” (HSC Research and Development Limited Partnership, priority 2006, dated 2011).
